Measurements from the supplement of paper PMC10369915.
Some of the results follow. No stated cut-off is given here; in the data, active = 3.2 or more and inactive = the rest. Only a few entries rise above the background.

Biological target: SHP2 C-SH2 domain E139D
Test: enrichment score (SH2-bound / input frequency) (ratio); bacterial display of known human phosphotyrosine sites (pTyr-Var adds point mutants) read by sequencing; higher = stronger binding; tyrosines were phosphorylated by kinases first
Details: peptide library: pTyr-Var
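Further: displayed peptides selected on beads carrying the immobilized SH2 domain, with library peptides lacking any tyrosine serving as negative controls.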

Enrichment score, inactive:
KRAIGHYSATS [FAM120A_Y327_Y327H] 0.465
FRNSLYAPDYS [FAM92A_Y226] 0.98
DDEENYENVPR [FCRL3_Y722] 0.57
SNNYIYKTLGV [FAM83B_Y639] 0.984
IQKWEYVPLGT [FAH_Y244_P249T] 1.12
DVSVVYSEVKT [FCRL4_Y493] 2.05
VDLSKCITTIA [FAS_Y232_Y232C] 0.604
TESNNYIFKTL [FAM83B_Y637_YF] 0.443
SPPILYSFYLD [FCRL6_Y239] 1.89
REVPVYTFSEP [FAM120B_Y368_D370Y_YF] 0.874
KRAIGYYSATS [FAM120A_Y327] 0.684
DLLMQYPKAQG [FAM83C_Y600] 1.06
MTFQNYGQALF [FAM20C_Y279] 0.975
IQKWEYVPLGP [FAH_Y244] 1.1
VNLVLHLSIAK [FBXO15_Y496_Y496H] 0.801
RAIGFYSATSK [FAM120A_Y328_YF] 0.787
GNEEAYGRSHI [FAM171B_Y522] 0.528
SPPILYSFFLD [FCRL6_Y239_YF] 2.25
RAIGYYSATSK [FAM120A_Y328] 0.677

Biological target: SHP2 C-SH2 domain wild-type
Test: as above
Details: peptide library: pTyr-Var

Enrichment score, inactive:
KRAIGHYSATS [FAM120A_Y327_Y327H] 0.528
FRNSLYAPDYS [FAM92A_Y226] 0.692
DDEENYENVPR [FCRL3_Y722] 0.483
SNNYIYKTLGV [FAM83B_Y639] 1.18
IQKWEYVPLGT [FAH_Y244_P249T] 1.23
VDLSKCITTIA [FAS_Y232_Y232C] 0.612
TESNNYIFKTL [FAM83B_Y637_YF] 0.616
SPPILYSFYLD [FCRL6_Y239] 1.97
REVPVYTFSEP [FAM120B_Y368_D370Y_YF] 1.23
KRAIGYYSATS [FAM120A_Y327] 0.625
DLLMQYPKAQG [FAM83C_Y600] 0.745
MTFQNYGQALF [FAM20C_Y279] 0.833
IQKWEYVPLGP [FAH_Y244] 1.09
VNLVLHLSIAK [FBXO15_Y496_Y496H] 1.57
RAIGFYSATSK [FAM120A_Y328_YF] 0.736
GNEEAYGRSHI [FAM171B_Y522] 0.56
SPPILYSFFLD [FCRL6_Y239_YF] 1.79
RAIGYYSATSK [FAM120A_Y328] 0.733

Enrichment score, active:
DVSVVYSEVKT [FCRL4_Y493] 4.33

Biological target: SHP2 N-SH2 domain L43F
Test: as above
Details: peptide library: pTyr-Var

Enrichment score, inactive:
KRAIGHYSATS [FAM120A_Y327_Y327H] 0.555
FRNSLYAPDYS [FAM92A_Y226] 0.856
DDEENYENVPR [FCRL3_Y722] 0.473
SNNYIYKTLGV [FAM83B_Y639] 0.879
IQKWEYVPLGT [FAH_Y244_P249T] 0.815
DVSVVYSEVKT [FCRL4_Y493] 1.64
VDLSKCITTIA [FAS_Y232_Y232C] 0.428
TESNNYIFKTL [FAM83B_Y637_YF] 0.614
SPPILYSFYLD [FCRL6_Y239] 1.85
REVPVYTFSEP [FAM120B_Y368_D370Y_YF] 0.848
KRAIGYYSATS [FAM120A_Y327] 0.581
DLLMQYPKAQG [FAM83C_Y600] 0.865
MTFQNYGQALF [FAM20C_Y279] 1.08
IQKWEYVPLGP [FAH_Y244] 1.05
VNLVLHLSIAK [FBXO15_Y496_Y496H] 0.764
RAIGFYSATSK [FAM120A_Y328_YF] 0.816
GNEEAYGRSHI [FAM171B_Y522] 0.561
SPPILYSFFLD [FCRL6_Y239_YF] 1.72
RAIGYYSATSK [FAM120A_Y328] 0.397

Biological target: SHP2 N-SH2 domain T42A
Test: as above
Details: peptide library: pTyr-Var

Enrichment score, inactive:
KRAIGHYSATS [FAM120A_Y327_Y327H] 0.48
FRNSLYAPDYS [FAM92A_Y226] 0.804
DDEENYENVPR [FCRL3_Y722] 0.541
SNNYIYKTLGV [FAM83B_Y639] 0.96
IQKWEYVPLGT [FAH_Y244_P249T] 1.11
VDLSKCITTIA [FAS_Y232_Y232C] 0.548
TESNNYIFKTL [FAM83B_Y637_YF] 0.531
SPPILYSFYLD [FCRL6_Y239] 1.49
REVPVYTFSEP [FAM120B_Y368_D370Y_YF] 0.635
KRAIGYYSATS [FAM120A_Y327] 0.542
DLLMQYPKAQG [FAM83C_Y600] 0.706
MTFQNYGQALF [FAM20C_Y279] 1.2
IQKWEYVPLGP [FAH_Y244] 1.06
VNLVLHLSIAK [FBXO15_Y496_Y496H] 0.625
RAIGFYSATSK [FAM120A_Y328_YF] 0.856
GNEEAYGRSHI [FAM171B_Y522] 0.632
SPPILYSFFLD [FCRL6_Y239_YF] 1.48
RAIGYYSATSK [FAM120A_Y328] 0.703

Enrichment score, active:
DVSVVYSEVKT [FCRL4_Y493] 5.08

Biological target: SHP2 N-SH2 domain T52S
Test: as above
Details: peptide library: pTyr-Var

Enrichment score, inactive:
KRAIGHYSATS [FAM120A_Y327_Y327H] 0.471
FRNSLYAPDYS [FAM92A_Y226] 0.712
DDEENYENVPR [FCRL3_Y722] 0.508
SNNYIYKTLGV [FAM83B_Y639] 0.792
IQKWEYVPLGT [FAH_Y244_P249T] 1.02
DVSVVYSEVKT [FCRL4_Y493] 1.48
VDLSKCITTIA [FAS_Y232_Y232C] 0.512
TESNNYIFKTL [FAM83B_Y637_YF] 0.615
SPPILYSFYLD [FCRL6_Y239] 1.93
REVPVYTFSEP [FAM120B_Y368_D370Y_YF] 0.841
KRAIGYYSATS [FAM120A_Y327] 0.676
DLLMQYPKAQG [FAM83C_Y600] 0.885
MTFQNYGQALF [FAM20C_Y279] 1.25
IQKWEYVPLGP [FAH_Y244] 1.12
VNLVLHLSIAK [FBXO15_Y496_Y496H] 0.546
RAIGFYSATSK [FAM120A_Y328_YF] 0.745
GNEEAYGRSHI [FAM171B_Y522] 0.984
SPPILYSFFLD [FCRL6_Y239_YF] 1.93
RAIGYYSATSK [FAM120A_Y328] 0.401

Biological target: SHP2 N-SH2 domain wild-type
Test: as above
Details: peptide library: pTyr-Var

Enrichment score, inactive:
KRAIGHYSATS [FAM120A_Y327_Y327H] 0.674
FRNSLYAPDYS [FAM92A_Y226] 0.902
DDEENYENVPR [FCRL3_Y722] 0.7
SNNYIYKTLGV [FAM83B_Y639] 0.998
IQKWEYVPLGT [FAH_Y244_P249T] 1.09
DVSVVYSEVKT [FCRL4_Y493] 1.19
VDLSKCITTIA [FAS_Y232_Y232C] 0.923
TESNNYIFKTL [FAM83B_Y637_YF] 0.952
SPPILYSFYLD [FCRL6_Y239] 1.27
REVPVYTFSEP [FAM120B_Y368_D370Y_YF] 1.08
KRAIGYYSATS [FAM120A_Y327] 0.683
DLLMQYPKAQG [FAM83C_Y600] 1.24
MTFQNYGQALF [FAM20C_Y279] 1.11
IQKWEYVPLGP [FAH_Y244] 1.42
VNLVLHLSIAK [FBXO15_Y496_Y496H] 1.22
RAIGFYSATSK [FAM120A_Y328_YF] 1.02
GNEEAYGRSHI [FAM171B_Y522] 0.635
SPPILYSFFLD [FCRL6_Y239_YF] 1.63
RAIGYYSATSK [FAM120A_Y328] 0.777
